Assay results: PubChem BioAssay AID463173 (ICCB-Longwood Screening Facility, Harvard Medical School, 2010)
The campaign covered roughly 52,000 compounds. About 4,300 (8.3%) were called active. Rule as the data show it: active = survival mostly below about 52% (no sharp cut-off); inactive = mostly above about 56%. The list shows a part of the results.

system: DeltatarO mutant; test: S. aureus survival, RN4220 and DeltatarO strains – OD600, teichoic acid synthesis inhibitors, primary screen (AID 463173); settings: S. aureus RN4220 wild type/DeltatarO growth, OD600, 18 h, stronger effect = lower value, screened at 18.75 µg/mL (by protocol)

Row | SMILES | survival
1 | CC(=O)c1cccc(NC(=O)CCS(=O)(=O)c2cc3c(cc2C)NC(=O)CO3)c1 | inactive: 85%
2 | CCc1noc(-c2ccc(NC(C)c3ccccc3)c([N+](=O)[O-])c2)n1 (centres undefined) | inactive: 81%
3 | CCN(CC)C(=O)C1=C(C)Nc2nc3ccccc3n2C1c1ccc(Br)cc1 (centres undefined) | inactive: 66%
4 | O=C(Cn1c(=O)n(Cc2ccco2)c(=O)c2ccc(C(=O)NC3CCCC3)cc21)Nc1ccc(F)cc1 | inactive: 90%
5 | COc1ccc(-n2nc(C(=O)NCCc3ccc(Cl)cc3)c3c4ccccc4n(C)c3c2=O)cc1Cl | inactive: 96%
6 | Cc1cc(C)n(CC(=O)Nc2ccc(F)c(F)c2)c(=O)c1C#N | inactive: 100%
7 | COc1ccc(C(=O)Nc2ccccc2C(=O)NC(C(=O)NCc2ccco2)C(C)C)cc1 (centres undefined) | inactive: 65%
8 | COc1ccc(CCNC(=O)c2c(O)nc3cc(C)ccn3c2=O)cc1OC | inactive: 56%
9 | Cc1cc(-c2ccc(C)c(S(=O)(=O)N3CCCC(C)C3)c2)on1 (centres undefined) | inactive: 79%
10 | COC(=O)c1c(C)oc2ccc(N(C(=O)c3ccncc3)S(=O)(=O)c3cc(C)c(C)cc3C)cc12 | inactive: 50%
11 | COc1ccc(C(CC(=O)Nc2ccc(C)cn2)N2Cc3ccccc3C2=O)cc1OC (centres undefined) | inactive: 89%
12 | CCOC(=O)N1CCC(NC(=O)c2ccc3c(c2)N(Cc2cccc(C)c2)C(=O)c2ccccc2S3(=O)=O)CC1 | inactive: 97%
13 | CCOC(=O)c1c(S(=O)(=O)N2CCC(C(=O)N3CCN(c4cccc(C)c4C)CC3)CC2)c(C)n(C)c1C | inactive: 90%
14 | CCn1cnc2c(cnn2-c2ccccc2)c1=O | inactive: 91%
15 | CCC(CC)C(=O)Nc1cc(-c2cn3cccnc3n2)ccc1OC | inactive: 86%
16 | CCOc1ccccc1C1N=C(N)Nc2nc3ccccc3n21 (centres undefined) | inactive: 81%
17 | Cc1nc(N2CCCC2)c2c(C(=O)Nc3ccc(C)c(Cl)c3)c(C)oc2n1 | inactive: 124%
18 | Cc1ccccc1-c1nnc(CN2CCN(c3cc(Cl)ccc3C)CC2)o1 | inactive: 74%
19 | O=C(CSc1nnc(COc2ccc(Cl)cc2)o1)Nc1ccccc1 | inactive: 51%
20 | CCOc1ccc(C(=O)Nc2c(C(=O)c3ccccc3)oc3ccccc23)cc1 | inactive: 72%
21 | Cc1ccc(CN2CCSc3ccc(C(=O)Nc4ccc(Cl)cc4)cc32)cc1 | inactive: 100%
22 | CCCN(CCC)CCCNC(=O)c1cc2c(=O)oc3ccc(C)cc3c2s1 | inactive: 113%
23 | CC(NC(=O)C1(c2cccs2)CCOCC1)c1ccccc1 (centres undefined) | inactive: 99%

Row | SMILES | survival
24 | N#Cc1c(/N=C/c2ccco2)oc(-c2ccccc2)c1-c1ccccc1 | inactive: 98%
25 | CCOc1ccc(CCNC(=O)CCCc2cc(-c3ccc(OCC)cc3)on2)cc1 | inactive: 92%
26 | Cc1nc2cccnc2n1C1CCN(S(=O)(=O)c2ccc(Cl)cc2)CC1 | inactive: 83%
27 | COc1cccc(CNC(=O)c2nnn(CC(=O)Nc3cc(Cl)ccc3C)c2N)c1 | active: 25%
28 | CCC(=O)Nc1ccc2nc(C)n(Cc3ccccc3)c(=O)c2c1 | inactive: 69%
29 | O=S(=O)(c1ccc(F)cc1)N1CCC(Oc2ccc(-n3cnnn3)cc2)CC1 | inactive: 70%
30 | COC(=O)c1ccc(N=NN2CCCCC2)cc1 | inactive: 96%
31 | Cc1ccc(Nc2cc(C)nc3nc(Cc4ccc(Cl)cc4)nn23)cc1 | inactive: 52%
32 | Cc1cccc(N2C(=O)C(CC(=O)Nc3cccc(F)c3)N(Cc3cccs3)C2=O)c1 (centres undefined) | active: 8%
33 | CCC(=O)N1CCc2cc(Br)cc(S(=O)(=O)CCC(=O)Nc3cccc(CC)c3)c21 | inactive: 105%
34 | Cc1ccc(-c2ccc(=O)n(Cc3ccc(F)cc3)n2)cc1 | inactive: 50%
35 | CCOc1ccc(NC(=O)c2c(NC(=O)c3ccco3)sc3c2CCC(C(C)(C)C)C3)cc1 (centres undefined) | inactive: 68%
36 | O=C(O)CC(NS(=O)(=O)c1ccc(Cl)s1)c1ccccc1 (centres undefined) | inactive: 76%
37 | Cc1nc2cccnc2n1-c1cccc(C(=O)NCc2ccc(OC(C)C)cc2)c1 | inactive: 71%
38 | COc1cc(NS(=O)(=O)c2ccc(NC(=O)C(C)Oc3ccc(Cl)cc3Cl)cc2)nc(OC)n1 (centres undefined) | inactive: 49%
39 | COc1ccc(Nc2c(-c3ccc(Cl)cc3)nc3cnccn23)cc1OC | inactive: 58%
40 | CC(C)c1ccccc1NC(=O)CC(C)(C)C | inactive: 74%
41 | Cc1cc(C)cc(Oc2coc3c(CN4CCN(C)CC4)c(O)ccc3c2=O)c1 | inactive: 53%
42 | O=C(NCc1ccccc1Cl)C1CCN(S(=O)(=O)c2ccc3c(c2)CCCN3C(=O)C2CCC2)CC1 | inactive: 85%
43 | CCC12CN3CC(C)(CN(C1)C3c1ccc(O)cc1O)C2=O (centres undefined) | inactive: 78%
44 | Cc1ccc2nc(/C(C#N)=C/c3cccc(Br)c3)[nH]c2c1 | active: 3%
45 | Cc1ccccc1CN1CCC(CNc2ncnc3onc(-c4ccc(Cl)cc4)c23)CC1 | inactive: 67%
46 | CN(C)S(=O)(=O)n1cc(/C=C(\NC(=O)c2ccccc2F)C(=O)NCCCn2ccnc2)c2ccccc21 | inactive: 99%

Row | SMILES | survival
47 | CC(=O)Nc1nnc(SCC(=O)N2CCCC2)s1 | inactive: 55%
48 | COc1ccc2[nH]c(=O)c(CN(Cc3cccs3)C(c3nnnn3C(C)(C)C)C(C)C)cc2c1 (centres undefined) | inactive: 107%
49 | Cc1ccc(NC(=O)C2CCCN(c3ncnc4c3nc3n4CCCCC3)C2)cc1F (centres undefined) | inactive: 92%
50 | CCOc1ccccc1CNC(=O)Cn1c(-c2ccccc2)cc(C(C)=O)c1C | inactive: 58%
51 | O=C(NC1CC(=O)N(c2cccc(F)c2)C1)c1ccc(S(=O)(=O)N2CCCC2)cc1 (centres undefined) | inactive: 68%
52 | O=C(Cn1c(=O)n(Cc2ccccc2)c(=O)c2sc3ccccc3c21)NCc1ccccc1Cl | inactive: 112%
53 | O=C(CCc1nc(-c2cccs2)no1)Nc1ccccc1[N+](=O)[O-] | inactive: 82%
54 | Cc1ccn2c(=O)c(C(=O)NCCc3ccccc3)c(O)nc2c1 | inactive: 136%
55 | CC1CC(C)(C)NC(=O)O1 (centres undefined) | inactive: 96%
56 | Cc1ccc2nc(NC(=O)CSc3nccn3Cc3ccc(Cl)cc3)sc2c1 | inactive: 96%
57 | COc1ccc(CCNC(=O)c2cnc3ccc(C)cn3c2=O)cc1 | inactive: 100%
58 | CCCS(=O)(=O)c1c(S(=O)(=O)CCC)c2cc(CC)ccn2c1C(=O)c1ccc(OC)cc1 | inactive: 84%
59 | COc1cccc(Cn2nnc(C(=O)Nc3cc(C)ccc3C)c2N)c1 | inactive: 100%
60 | CC(C)CS(=O)(=O)c1oc(-c2ccc(F)cc2)nc1S(=O)(=O)c1ccccc1 | active: -4%
61 | CCOc1ccc(NC(=O)N2CCC(C(N)=O)(N3CCCCC3)CC2)cc1 | inactive: 101%
62 | COc1ccc(N2CCN(C(=O)C3CCCN(S(=O)(=O)c4ccc5c(c4)CCCN5C(C)=O)C3)CC2)cc1 (centres undefined) | inactive: 115%
63 | COc1ccc(OC)c(-c2cc(C(=O)NCCc3ccccc3)c3c(-c4ccc(C)cc4)[nH]nc3n2)c1 | inactive: 67%
64 | CC(NC(=O)CCCC1=NS(=O)(=O)c2ccccc2N1)c1ccccc1 (centres undefined) | inactive: 83%
65 | CCOc1ccccc1NC(=O)c1c(NC(=O)COc2ccccc2)sc2c1CCCCC2 | inactive: 141%
66 | CCCn1cc(S(=O)(=O)c2ccccc2)c(=O)c2cc(F)c(N3CCCCC3)cc21 | inactive: 67%
67 | O=C(Nc1cccc(Cl)c1)N1CCSc2ccccc21 | inactive: 79%
68 | CSc1ccc(CCNC(=O)c2cnn(-c3ccccc3)c2-n2cccc2)cc1 | active: 46%
69 | Cc1cccc(NC(=O)c2cc(S(=O)(=O)N3CCc4ccccc43)ccc2F)c1C | inactive: 65%

Row | SMILES | survival
70 | CCC(C)n1c(=N)c(C(=O)NCc2ccccc2)cc2c(=O)n3cc(C)ccc3nc21 (centres undefined) | inactive: 69%
71 | CCCN1C(=O)CC(C(=O)OC)=C1C | inactive: 81%
72 | Cc1ccc(NC(=O)C2CCN(c3nc4ccccc4nc3C(F)(F)F)CC2)cc1F | active: 46%
73 | CC(C)n1c(=N)c(C(=O)NCc2cccnc2)cc2c(=O)n3ccccc3nc21 | inactive: 126%
74 | O=C(COc1ccc(Cl)cc1)OCc1cc(=O)n2nc(-c3cccs3)sc2n1 | active: -4%
75 | COc1ccc(Cl)cc1NS(=O)(=O)c1cc(Br)cc2c1N(C(=O)C1CC1)CC2 | active: 55%
76 | Cc1ccc(CNC(=O)CCc2c(C)nc3c(c(C)nn3-c3ccccc3)c2C)cc1 | inactive: 62%
77 | COc1ccc(C(=O)c2oc3ccccc3c2NC(=O)COc2ccccc2)cc1 | inactive: 62%
78 | COc1ccc(CCNC(=O)c2sc3nc4n(c(=O)c3c2C)CCCC4)cc1OC | inactive: 64%
79 | CCc1cccc(C)c1NC(=O)CC1Oc2ccc(C)cc2NC1=O (centres undefined) | inactive: 117%
80 | COc1ccc(S(=O)(=O)c2nnn(-c3cc(Cl)c(OC)cc3OC)c2C)cc1 | inactive: 71%
81 | CCOCCCn1c(SCC(=O)Nc2ccc(C(C)C)cc2)nc2c(sc3ccccc32)c1=O | inactive: 109%
82 | COc1ccc(CCN(Cc2cc3cc4c(cc3[nH]c2=O)OCO4)C(=O)c2ccncc2)cc1OC | inactive: 101%
83 | CC(NC(=O)Nc1c[nH]c2ccccc2c1=O)c1ccncc1 (centres undefined) | inactive: 99%
84 | O=C(CSc1nc2c([nH]c3ccccc32)c(=O)n1-c1ccc(F)cc1)NCc1ccccc1 | inactive: 102%
85 | Cn1c(=O)c2c(-c3ccccc3)n3c4ccccc4nc(-c4ccccc4)c3c2n(C)c1=O | inactive: 82%
86 | COC(=O)c1cc2occc2n1Cc1nc(-c2ccccc2F)oc1C | inactive: 102%
87 | COc1ccc(C(=O)NCC(c2cccnc2)N2CCc3ccccc3C2)cc1OC (centres undefined) | inactive: 69%
88 | CCOc1cccc(C(=O)Nc2ccc(S(=O)(=O)N(Cc3ccccc3)c3ccccc3)cc2)c1 | inactive: 78%
89 | CCOc1ccc(NC(=O)Cn2cc(C(=O)c3ccc(CC)cc3)c(=O)c3cc(C)ccc32)cc1 | inactive: 82%
